The source gives no read counts; variants with many changes may rest on few reads.
B1: LINE1-mini (parent)
chain: GGCAGAGCUCAACACAGCGUGGCAAAGUGGCUGUGGCUAGACUGCC

Variants of: B1
Assay: self-cleavage, relative activity (ratio to wild type); higher = more cleavage; in vitro, sequencing; the parent is a self-cleaving ribozyme

Row | Variant | self-cleavage
1 | G7C C10A C42U | 0.03
2 | G7C C10A G27C | 0.07
3 | G7C C10A G33C | 0.02
4 | G7C C10A U43A | 0.03
5 | G7C C10G A24G G36A | 0.03
6 | G7C C10G A39G | 0.01
7 | G7C C10G C23G U28G | 0
8 | G7C C10G C31U | 0.12
9 | G7C C10G U38C U43G | 0.02
10 | G7C C10U A39G C42G | 0.1
11 | G7C C10U C13A C18U U32C C46G | 0.02
12 | G7C C13A C23G C42A | 0.19
13 | G7C C13A C23U | 0.09
14 | G7C C13A G22U U34C | 0.07
15 | G7C C13A U20A G35U A39C | 0.23
16 | G7C C13G A16C C23G C37U C46U | 0.01
17 | G7C C13G C15G C23U G36C | 0.04
18 | G7C C13G C15G G29U | 0.08
19 | G7C C13G C18U G36U C46G | 0.02
20 | G7C C13G G29U | 0.1
21 | G7C C13U C15A G22U A25G A26G G40C | 0.02
22 | G7C C13U C23A | 0.69
23 | G7C C13U G19U A41G | 0.01
24 | G7C C13U G22C A41C | 0.04

Row | Variant | self-cleavage
25 | G7C C13U G30U C42U | 0.07
26 | G7C C13U G35A | 0.22
27 | G7C C13U G36C C37G | 0.05
28 | G7C C15A A41U C42A | 0.12
29 | G7C C15A C18U U20A U32A A41U C45G | 0.01
30 | G7C C15U G29U | 0.08
31 | G7C C15U U20A | 0.03
32 | G7C C18G C23G U32A | 0.03
33 | G7C C18G G21A G30U C31G U34A G40U | 0.01
34 | G7C C18G G22A A39C A41G | 0.08
35 | G7C C18G G36C | 0.18
36 | G7C C18U G27U C45G | 0.04
37 | G7C C18U U34C G35U | 0.04
38 | G7C C23A G30C C31U U32G | 0.03
39 | G7C G17C G27U U32G C42G | 0.01
40 | G7C G17C U38A | 0.06
41 | G7C G17U A26G A39C | 0.05
42 | G7C G17U G19U A26G C42G | 0.01
43 | G7C G19A G35C A39C C46A | 0.01
44 | G7C G19C C23G A26C G30U | 0.02
45 | G7C G19C G35A A39U | 0.01
46 | G7C G19U G29C G40A A41C | 0.02
47 | G7C G19U G36C | 0.04
48 | G7C G19U U28A | 0.03

Row | Variant | self-cleavage
49 | G7C G21A A24G | 0.27
50 | G7C G21A A39C | 0.2
51 | G7C G21C C42A | 0.01
52 | G7C G21C G35A U43A | 0.02
53 | G7C G21U A24U G44A | 0.19
54 | G7C G21U A25G G36A C42A | 0.53
55 | G7C G21U C37A | 0.02
56 | G7C G22A A25C U32C C37G | 0.04
57 | G7C G22A C23A G36U C42G C45U | 0.01
58 | G7C G22C U38G C46G | 0
59 | G7C G22U C31A C46U | 0.08
60 | G7C G27C U32A | 0.2
61 | G7C G29U U38G | 0.03
62 | G7C G30U G33A C37U | 0.03
63 | G7C G33A A39C C42A | 0.07
64 | G7C G33A A41G C42G | 0.13
65 | G7C G33C C46G | 0
66 | G7C G33U G36C | 0.03
67 | G7C G35C G44C | 0.05
68 | G7C G35U C37A | 0.18
69 | G7C G36A A41C C45U | 0.2
70 | G7C U9A C15A G36A | 0.01
71 | G7C U9A C23A U34A G35A C37U | 0.05
72 | G7C U9A U28G A41C | 0.08

Row | Variant | self-cleavage
73 | G7C U9G A14G U43C | 0.88
74 | G7C U9G C10U A14G | 0.06
75 | G7C U9G C15G | 0.1
76 | G7C U9G G17C C31G | 0.05
77 | G7C U9G G21A C23A U38G A41G | 0.01
78 | G7C U9G G36C | 0.06
79 | G7C U20A G35U G36C | 0.03
80 | G7C U20C A26U G44A | 0.02
81 | G7C U20G A25C G27U U38G G40U | 0.03
82 | G7C U20G G21C C37U | 0
83 | G7C U28C G33U | 0.06
84 | G7C U28G C37U | 0.03
85 | G7C U28G G44A | 0.03
86 | G7C U32A G35U | 0.04
87 | G7C U32G G33U | 0.16
88 | G7C U32G G36C | 0.05
89 | G7C U34A U43A | 0.03
90 | G7C U38A A39C G40A | 0.11
91 | G7U A11C A25U | 0
92 | G7U A11C A39G | 0.03
93 | G7U A11C C13G C23G U32G | 0
94 | G7U A11C G29A C46U | 0.01
95 | G7U A11U C18U A26G | 0
96 | G7U A11U G17U C18A | 0.03

Row | Variant | self-cleavage
97 | G7U A11U G19U G33U C46U | 0.05
98 | G7U A11U G29A | 0.02
99 | G7U A11U G29C G35A G36A C46U | 0.01
100 | G7U A12C A14C C15U A26C G40U | 0.02
101 | G7U A12C C13A A14U | 0.08
102 | G7U A12C C23A G33U C46U | 0
103 | G7U A12G G22U C37G C45A | 0.06
104 | G7U A12G G30A | 0.03
105 | G7U A12G G36U | 0.02
106 | G7U A12G G36U A41U | 0.02
107 | G7U A12G G44C C45A | 0.03
108 | G7U A12U A14G G29U C37A | 0.02
109 | G7U A12U A14G G35C | 0.02
110 | G7U A12U C23G A41C | 0.07
111 | G7U A12U G21C G22C U43G C45U | 0.05
112 | G7U A14C G17C C46A | 0.03
113 | G7U A14C G21C | 0.03
114 | G7U A14C G40U C42U | 0.11
115 | G7U A14G A26G G40C | 0.01
116 | G7U A14G C15G G17C G19A G44C | 0.09
117 | G7U A14U A24U G40A | 0.44
118 | G7U A14U G17U A24C G27U C42A C46U | 0.11
119 | G7U A14U G21U U38A | 0.02
120 | G7U A14U G29C C45U | 0.04

Row | Variant | self-cleavage
121 | G7U A14U U20G | 0.09
122 | G7U A16C C45A | 0.1
123 | G7U A16C U20G G33C | 0.02
124 | G7U A16G A39C | 0.06
125 | G7U A16G C23U | 0.01
126 | G7U A16G G19C U32G | 0.02
127 | G7U A16G G29U | 0.02
128 | G7U A16U C31U | 0.09
129 | G7U A16U G21U A26C G40U C45A | 0.24
130 | G7U A16U G22C U38A | 0.02
131 | G7U A16U G44C | 0.16
132 | G7U A24C U32C U38G | 0.02
133 | G7U A24G A25C G29U C42U | 0.03
134 | G7U A24G G40U C42A U43G | 0.14
135 | G7U A25C U43G | 0.07
136 | G7U A26C A41C | 0.09
137 | G7U A26C G33A | 0.15
138 | G7U A26G A41C U43C | 0.32
139 | G7U A26G G27U U28G G30C C31U U32G G33U U34G | 0.02
140 | G7U A39C C42A | 0.58
141 | G7U A39C C45U | 0.11
142 | G7U A39G G40U | 0.08
143 | G7U A41G C42A U43C G44U C45G | 0.04
144 | G7U C8A A16U G17U | 0.75

Row | Variant | self-cleavage
145 | G7U C8A U9A A26C U28C G33A | 0.47
146 | G7U C8G C23A C31A C37A | 0.04
147 | G7U C8G U28G A39U A41G | 0.1
148 | G7U C8U A12C U20G G33U C42G | 0.09
149 | G7U C8U A14U C37A | 0.1
150 | G7U C8U A24G | 0.26
151 | G7U C8U C18A G22A U28G | 0.2
152 | G7U C8U G19A A26C C37U C42U G44C | 0.02
153 | G7U C8U G19A U43A | 0.07
154 | G7U C8U G36C | 0.42
155 | G7U C10A A11U G21A | 0.02
156 | G7U C10A A12U A41G | 0.04
157 | G7U C10A C13G U32A | 0.02
158 | G7U C10A C37U U38G | 0.04
159 | G7U C10A G17A C31G | 0.09
160 | G7U C10A G17C C46A | 0.02
161 | G7U C10A G22A A25C | 0
162 | G7U C10A G40A | 0.01
163 | G7U C10A U20A | 0.01
164 | G7U C10G A11C A39C | 0
165 | G7U C10G A14C | 0.02
166 | G7U C10G A25C U38A | 0.01
167 | G7U C10G A26U G27A G29U U38A | 0.01

— the RNAGym collection of RNA variant scans (doi:10.7554/elife.90254)
